Source: PMC9911399, “Two distinct binding modes provide the RNA-binding protein RbFox with extraordinary sequence specificity”
Numbering of substitutions follows the chain as printed; changes in the protein carry UniProt numbers. This is one part of the list.

T1: RBFOX1 RRM RbFoxmut (Fox-RRM*) (Homo sapiens, UniProt Q9NWB1 109-208, R118D;E147R;N151S;E152T)
T1 sequence: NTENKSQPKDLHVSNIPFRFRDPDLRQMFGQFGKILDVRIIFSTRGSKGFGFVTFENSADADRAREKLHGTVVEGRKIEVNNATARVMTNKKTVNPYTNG

B1: ACCCGGU (DNA:RNA)
RNA: GGGAGACCGGAAUUCAGAUUGUCCACCCGGUUUAAAUCCCGUCGUAGCCACCA
DNA 1: CAATCTGAATTCCGGTCTCCC
DNA 2: TGGTGGCTACGACGGGATT
B2: ACGCUUG (DNA:RNA)
RNA: B1 RNA with C27G, G29U, G30U, U31G
DNA 1: CAATCTGAATTCCGGTCTCCC
DNA 2: TGGTGGCTACGACGGGATT
B3: CGCAUAA (DNA:RNA)
RNA: B1 RNA with A25C, C26G, C28A, G29U, G30A, U31A
DNA 1: CAATCTGAATTCCGGTCTCCC
DNA 2: TGGTGGCTACGACGGGATT
B4: CUUCACG (DNA:RNA)
RNA: B1 RNA with A25C, C26U, C27U, G29A, G30C, U31G
DNA 1: CAATCTGAATTCCGGTCTCCC
DNA 2: TGGTGGCTACGACGGGATT
B5: UUUGGAU (DNA:RNA)
RNA: B1 RNA with A25U, C26U, C27U, C28G, G30A
DNA 1: CAATCTGAATTCCGGTCTCCC
DNA 2: TGGTGGCTACGACGGGATT
B6: GGCGCAU (DNA:RNA)
RNA: B1 RNA with A25G, C26G, C28G, G29C, G30A
DNA 1: CAATCTGAATTCCGGTCTCCC
DNA 2: TGGTGGCTACGACGGGATT
B7: GAUGUGG (DNA:RNA)
RNA: B1 RNA with A25G, C26A, C27U, C28G, G29U, U31G
DNA 1: CAATCTGAATTCCGGTCTCCC
DNA 2: TGGTGGCTACGACGGGATT
B8: ACCAAUC (DNA:RNA)
RNA: B1 RNA with C28A, G29A, G30U, U31C
DNA 1: CAATCTGAATTCCGGTCTCCC
DNA 2: TGGTGGCTACGACGGGATT
B9: ACCGUCA (DNA:RNA)
RNA: B1 RNA with C28G, G29U, G30C, U31A
DNA 1: CAATCTGAATTCCGGTCTCCC
DNA 2: TGGTGGCTACGACGGGATT
B10: GAGUGCC (DNA:RNA)
RNA: B1 RNA with A25G, C26A, C27G, C28U, G30C, U31C
DNA 1: CAATCTGAATTCCGGTCTCCC
DNA 2: TGGTGGCTACGACGGGATT
B11: CAAACCC (DNA:RNA)
RNA: GGGAGACCGGAAUUCAGAUUGUCCCAAACCCUUAAAUCCCGUCGUAGCCACCA
DNA 1: CAATCTGAATTCCGGTCTCCC
DNA 2: TGGTGGCTACGACGGGATT
B12: GAACUUG (DNA:RNA)
RNA: B11 RNA with C25G, A28C, C29U, C30U, C31G
DNA 1: CAATCTGAATTCCGGTCTCCC
DNA 2: TGGTGGCTACGACGGGATT
B13: UCUCGUU (DNA:RNA)
RNA: B1 RNA with A25U, C27U, G30U
DNA 1: CAATCTGAATTCCGGTCTCCC
DNA 2: TGGTGGCTACGACGGGATT
B14: AUGCGGG (DNA:RNA)
RNA: B1 RNA with C26U, C27G, U31G
DNA 1: CAATCTGAATTCCGGTCTCCC
DNA 2: TGGTGGCTACGACGGGATT
B15: ACGAUGU (DNA:RNA)
RNA: B1 RNA with C27G, C28A, G29U
DNA 1: CAATCTGAATTCCGGTCTCCC
DNA 2: TGGTGGCTACGACGGGATT
B16: CAACCGU (DNA:RNA)
RNA: B11 RNA with A28C, C30G, C31U
DNA 1: CAATCTGAATTCCGGTCTCCC
DNA 2: TGGTGGCTACGACGGGATT
B17: AAAGACU (DNA:RNA)
RNA: B11 RNA with C25A, A28G, C29A, C31U
DNA 1: CAATCTGAATTCCGGTCTCCC
DNA 2: TGGTGGCTACGACGGGATT
B18: UAUUUCC (DNA:RNA)
RNA: B11 RNA with C25U, A27U, A28U, C29U
DNA 1: CAATCTGAATTCCGGTCTCCC
DNA 2: TGGTGGCTACGACGGGATT
B19: GUGGGGA (DNA:RNA)
RNA: B1 RNA with A25G, C26U, C27G, C28G, U31A
DNA 1: CAATCTGAATTCCGGTCTCCC
DNA 2: TGGTGGCTACGACGGGATT
B20: UGGAAAU (DNA:RNA)
RNA: B1 RNA with A25U, C26G, C27G, C28A, G29A, G30A
DNA 1: CAATCTGAATTCCGGTCTCCC
DNA 2: TGGTGGCTACGACGGGATT
B21: ACAACCG (DNA:RNA)
RNA: B11 RNA with C25A, A26C, C31G
DNA 1: CAATCTGAATTCCGGTCTCCC
DNA 2: TGGTGGCTACGACGGGATT
B22: AGUUGAA (DNA:RNA)
RNA: B1 RNA with C26G, C27U, C28U, G30A, U31A
DNA 1: CAATCTGAATTCCGGTCTCCC
DNA 2: TGGTGGCTACGACGGGATT
B23: CGCCUGG (DNA:RNA)
RNA: B1 RNA with A25C, C26G, G29U, U31G
DNA 1: CAATCTGAATTCCGGTCTCCC
DNA 2: TGGTGGCTACGACGGGATT
B24: CUAUGCA (DNA:RNA)
RNA: B11 RNA with A26U, A28U, C29G, C31A
DNA 1: CAATCTGAATTCCGGTCTCCC
DNA 2: TGGTGGCTACGACGGGATT
B25: CGUCAAU (DNA:RNA)
RNA: B1 RNA with A25C, C26G, C27U, G29A, G30A
DNA 1: CAATCTGAATTCCGGTCTCCC
DNA 2: TGGTGGCTACGACGGGATT
B26: UUCCUCA (DNA:RNA)
RNA: B1 RNA with A25U, C26U, G29U, G30C, U31A
DNA 1: CAATCTGAATTCCGGTCTCCC
DNA 2: TGGTGGCTACGACGGGATT
B27: UUUGGUC (DNA:RNA)
RNA: B1 RNA with A25U, C26U, C27U, C28G, G30U, U31C
DNA 1: CAATCTGAATTCCGGTCTCCC
DNA 2: TGGTGGCTACGACGGGATT
B28: CAGAGUA (DNA:RNA)
RNA: B11 RNA with A27G, C29G, C30U, C31A
DNA 1: CAATCTGAATTCCGGTCTCCC
DNA 2: TGGTGGCTACGACGGGATT
B29: UCCGUAC (DNA:RNA)
RNA: B1 RNA with A25U, C28G, G29U, G30A, U31C
DNA 1: CAATCTGAATTCCGGTCTCCC
DNA 2: TGGTGGCTACGACGGGATT
B30: GUUAGGG (DNA:RNA)
RNA: B1 RNA with A25G, C26U, C27U, C28A, U31G
DNA 1: CAATCTGAATTCCGGTCTCCC
DNA 2: TGGTGGCTACGACGGGATT
B31: CCCCUGA (DNA:RNA)
RNA: B1 RNA with A25C, G29U, U31A
DNA 1: CAATCTGAATTCCGGTCTCCC
DNA 2: TGGTGGCTACGACGGGATT

Molecular target: T1, RBFOX1 RRM RbFoxmut (Fox-RRM*)
Assay: EMSA; HiTS-Eq, 1 nM pool, 10 min; buffer printed only for the single-RNA assays: 10 mM Tris pH 7.5, 150 mM NaCl, 3.4 mM EDTA, 0.001% NP-40, 30 C
Conditions: tags: His6 N-terminal (pET28a); label: 5' 32P
Procedure, shortened: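 Purified RbFox RRM (wild type or mutant) was equilibrated for 10 min in 50 µL with 1 nM of a 5′-radiolabelled pool of RNA with 7 randomized nucleotides, its flanks annealed to DNA oligonucleotides, across increasing protein concentrations. Free RNA was separated by 8% native PAGE, excised, reverse-transcribed, PCR-barcoded and sequenced on an Illumina HiSeq 2500. Relative association constants came from read-count changes of each variant against the control reaction, normalised to the cognate motif.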

Binder	binding signal
B1	0.0772 KA relative to UGCAUGU
B2	0.231 KA relative to UGCAUGU
B3	0.117 KA relative to UGCAUGU
B4	0.169 KA relative to UGCAUGU
B5	0.0735 KA relative to UGCAUGU
B6	0.0915 KA relative to UGCAUGU
B7	0.0839 KA relative to UGCAUGU
B8	0.0731 KA relative to UGCAUGU
B9	0.0725 KA relative to UGCAUGU
B10	0.18 KA relative to UGCAUGU
B11	0.0755 KA relative to UGCAUGU
B12	0.0885 KA relative to UGCAUGU
B13	0.108 KA relative to UGCAUGU
B14	0.103 KA relative to UGCAUGU
B15	0.149 KA relative to UGCAUGU
B16	0.0769 KA relative to UGCAUGU

Binder	binding signal
B17	0.0797 KA relative to UGCAUGU
B18	0.064 KA relative to UGCAUGU
B19	0.0939 KA relative to UGCAUGU
B20	0.0772 KA relative to UGCAUGU
B21	0.0832 KA relative to UGCAUGU
B22	0.104 KA relative to UGCAUGU
B23	0.151 KA relative to UGCAUGU
B24	0.208 KA relative to UGCAUGU
B25	0.0652 KA relative to UGCAUGU
B26	0.0935 KA relative to UGCAUGU
B27	0.124 KA relative to UGCAUGU
B28	0.145 KA relative to UGCAUGU
B29	0.0905 KA relative to UGCAUGU
B30	0.0712 KA relative to UGCAUGU
B31	0.0997 KA relative to UGCAUGU
